Experimental data published in PubChem BioAssay (NCATS).
This list was built around the results that the source calls inconclusive (neither active nor inactive); the mix of calls is not that of the screen. For some of these results: Potencies of inconclusive entries are doubtful fits and often do not repeat. Active and inactive are the calls of the source. Unless noted, calls follow the shape of the dose curve; as a rule, active = well fitted curve in either direction with a large enough effect (not every such curve was filed as active); inconclusive = small, poorly fitted or top-dose-only effect, or another doubt; inactive = flat fitted curve, though single readings scatter.

Legend:
[1] = NFAT Signaling Pathway (AID 444); details: Jurkat NFAT-bla M1, carbachol, beta-lactamase ratio, 5 h; at 17.2 µM (top of the series) unless noted;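 also: carbachol stimulus at about its EC50 of 1 µM final; % is scaled to controls: 0 for no effect and ±100 for the full control effect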
How it was run: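 Jurkat cells with NFAT-driven β-lactamase reporter and co-expressed M1 receptor, stimulated with carbachol (final 1 uM, ~EC50), compound titration, 5 h at 37 °C. CCF4 loaded 1 h at RT; 460/530 nm ratio gave %activity and AC50.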

[2] = Stat Signaling Pathway (AID 446); details: ME-180 SIE beta-lactamase reporter, IL-6 stimulated, 5 h; at 7.69 µM (top of the series) unless noted;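 also: ME-180 cervical cancer cells given 40 pM IL-6 alongside compound; SIE-controlled beta-lactamase reporter measured as 460/530 nm FRET emission ratio; top concentration of the series differs between compounds; % is scaled to controls: 0 for no effect and ±100 for the full control effect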
How it was run: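 Overnight-plated ME-180 cells bearing a STAT Inducible Element beta-lactamase reporter; 5 h co-exposure to compound and 40 pM IL-6; values normalized to 300 pM IL-6 and 125 nM JAK inhibitor controls.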

[3] = target: Mitogen-activated protein kinase 10 (Mus musculus) (UniProt Q61831); assay: JNK3 AlphaScreen Assay (AID 530); details: JNK3 lysate, c-Jun phosphorylation; activity change, negative = inhibition: at 57.1 µM (top of the series);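 also: kinase came from lysate of stimulated human HepG2 cells; signal reports phosphorylation of biotinylated GST-cJun 1-79 at Ser73 with 10 µM ATP; potency is read from the fitted curve at half-maximal effect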
How it was run: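 HepG2 lysate (IL-1b/TNFa pre-activated) + biotin-GST-cJun 1-79 + anti-pSer73 cJun; cpd titration, 15 min RT; ATP 10 uM start; Tris pH 7.6, MgCl2, DTT, vanadate; beads in EDTA buffer; AlphaScreen.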

[4] = target: Muscarinic acetylcholine receptor M1 (Rattus norvegicus) (UniProt P08482); assay: qHTS Assay for Antagonists of Acetylcholine Muscarinic M1 Receptor: Kinetic Measurement of Intracellular Calcium Response (AID 943; active = well fitted curve in the direction sought with a large enough effect; inconclusive = small, poorly fitted or top-dose-only effect, or another doubt; inactive = no such curve, though single readings can be large; an effect the other way counts as inactive or inconclusive; also: potency is read from the fitted curve at half-maximal effect; nearly all actives have a fitted effect of over 75% in size)
How it was run: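 Read-out: peak over basal Fluo-4 fluorescence, kinetic at 1 Hz for 4 min after EC80 carbachol (100 nM final). Rat M1-CHO cells, dye loaded 1 h at 37C, compound added 10 min before agonist.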

[5] = target: Muscarinic acetylcholine receptor M1 (Rattus norvegicus) (UniProt P08482); assay: qHTS Assay for Antagonists of Acetylcholine Muscarinic M1 Receptor: Measurement of IP-One Response (AID 944; active = well fitted curve in the direction sought with a large enough effect; inconclusive = small, poorly fitted or top-dose-only effect, or another doubt; inactive = no such curve, though single readings can be large; an effect the other way counts as inactive or inconclusive; also: potency is read from the fitted curve at half-maximal effect; nearly all actives have a fitted effect of over 75% in size)
[6] = target: Cytochrome P450 2C9 (Homo sapiens) (UniProt P11712); assay: qHTS Assay for Inhibitors and Substrates of Cytochrome P450 2C9 (AID 883; active = well fitted curve in the direction sought with a large enough effect; inconclusive = small, poorly fitted or top-dose-only effect, or another doubt; inactive = no such curve, though single readings can be large; an effect the other way counts as inactive or inconclusive; also: potency is read from the fitted curve at half-maximal effect; nearly all actives have a fitted effect of over 60% in size); details: recombinant CYP2C9, luciferin-H luminescence, 60 min; activity change, negative = inhibition: at 57.1 µM (top of the series)
How it was run: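 10nM CYP2C9 + 100uM Luciferin-H (=KM), 25mM KPO4; cpd 10 min 37C; NADPH regen, 60 min 37C; stop/detect with P450 Glo-Buffer 20 min; luminescence. Norm. to 57uM sulphaphenazole as full inhibition.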

[7] = qHTS Assay for Identification of Small Molecule Agonists for Hypoxia Response Element Signaling Pathway (AID 914; active = well fitted activation curve with a large enough effect in the signal ratio, with a control signal flat, not every such curve was filed as active; inconclusive = small, poorly fitted or top-dose-only effect, or effect the other way, or a change in a side signal; the % refers to the signal ratio; also: potency is read from the fitted curve at half-maximal effect; as to activation: top concentration of the series differs between compounds; % of control where 0% means no effect); details: ME-180 (cervical carcinoma) HRE-bla reporter, beta-lactamase ratio, CoCl2, 17 h; activation: hits give high values
How it was run: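 Reporter activity (beta-lactamase, CCF4 460nm/530nm ratio) in HRE-bla ME-180 cells is recorded after 17 h compound exposure with EC50 CoCl2 at 37 degrees Celsius. AC50 values come from titration data.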

[8] = target: Cytochrome P450 2D6 (Homo sapiens) (UniProt P10635); assay: qHTS Assay for Inhibitors and Substrates of Cytochrome P450 2D6 (AID 891; active = well fitted curve in the direction sought with a large enough effect; inconclusive = small, poorly fitted or top-dose-only effect, or another doubt; inactive = no such curve, though single readings can be large; an effect the other way counts as inactive or inconclusive;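 also: luciferin methyl ether substrate demethylated by CYP2D6 with NADPH regeneration; nearly all actives have a fitted effect of over 60% in size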; also: potency is read from the fitted curve at half-maximal effect; as to activity change, negative = inhibition: top concentration of the series differs between compounds; % is scaled to controls: 0 for no effect and ±100 for the full control effect); details: recombinant CYP2D6, luciferin-ME EGE luminescence; activity change, negative = inhibition: at 57.1 µM (top of the series)
How it was run: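 Luminescent read-out of luciferin formed by 5 nM human CYP2D6 demethylating 30 uM Luciferin-ME EGE (Km level) over 60 min at room temperature after NADPH regeneration addition. Data normalized to full inhibition by 1.43 uM quinidine.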

[9] = target: Cytochrome P450 3A4 (Homo sapiens) (UniProt P08684); assay: qHTS Assay for Inhibitors and Substrates of Cytochrome P450 3A4 (AID 884; active = well fitted curve in the direction sought with a large enough effect; inconclusive = small, poorly fitted or top-dose-only effect, or another doubt; inactive = no such curve, though single readings can be large; an effect the other way counts as inactive or inconclusive; also: potency is read from the fitted curve at half-maximal effect; nearly all actives have a fitted effect of over 50% in size)
How it was run: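 Luminescent readout of luciferin produced by CYP3A4 (20 nM) dealkylation of Luciferin-PPXE, 25 uM (its KM). NADPH-driven reaction ran 60 min at RT after 10 min compound preincubation; data scaled to 57 uM ketoconazole as 100% inhibition.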

[10] = target: 3',5'-cyclic-AMP phosphodiesterase 4B (Homo sapiens) (UniProt Q07343); assay: qHTS Assay for Inhibitors of PDE-IV (AID 607; active = well fitted activation curve with a large enough effect in the main read-out, with a control signal flat, not every such curve was filed as active; inconclusive = small, poorly fitted or top-dose-only effect, or effect the other way, or a change in a side signal; also: potency is read from the fitted curve at half-maximal effect; as to activation (PDE inhibition): % of control where 0% means no effect); details: HEK293 ACTOne CNG channel cells, membrane potential fluorescence; activation (PDE inhibition): at 22.9 µM (top of the series)
How it was run: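 Live HEK293 cells with a modified cyclic nucleotide-gated (CNG) channel report intracellular cAMP via membrane-potential dye fluorescence (ex 535/em 590 nm). Endogenous PDE-IV was targeted. Compounds were tested at up to 22.9 uM final; RO 20-1724 100 uM served as control.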

[11] = target: ATPase family AAA domain-containing protein 5 (Homo sapiens) (UniProt Q96QE3); assay: qHTS screen for small molecules that inhibit ELG1-dependent DNA repair in human embryonic kidney (HEK293T) cells expressing luciferase-tagged ELG1: Hit Confirmation using MMS Stimulated ELG1 (AID 624249; active = well fitted curve in the direction sought with a large enough effect; inconclusive = small, poorly fitted or top-dose-only effect, or another doubt; inactive = no such curve, though single readings can be large; an effect the other way counts as inactive or inconclusive; also: potency is read from the fitted curve at half-maximal effect; nearly all actives have a fitted effect of over 60% in size)
How it was run: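 Cells carrying luciferase-tagged ELG1 receive compound and DNA-damaging MMS (final concentration 10 µM) roughly five hours after seeding. Sixteen hours on, Amplight detects luciferase, and activity loss marks blocked ELG1 function.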

[12] = qHTS screen for small molecules that inhibit ELG1-dependent DNA repair: Hit Confirmation with MMS Viability (AID 624251; active = well fitted curve in the direction sought with a large enough effect; inconclusive = small, poorly fitted or top-dose-only effect, or another doubt; inactive = no such curve, though single readings can be large; an effect the other way counts as inactive or inconclusive;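 also: potency is read from the fitted curve at half-maximal effect; viability read 16 h after compound addition; nearly all actives have a fitted effect of over 60% in size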)
How it was run: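 HEK293T ELG1-luc, 2,000 cells/well; cpd pin-transferred ~5 h post-seeding; MMS 10 µM final; 16 h; CellTiter-Glo viability.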

[13] = qHTS for Inhibitors of the vitamin D receptor (VDR): Hit Validation using a Texas Red Assay (AID 602201; active = well fitted curve in the direction sought with a large enough effect; inconclusive = small, poorly fitted or top-dose-only effect, or another doubt; inactive = no such curve, though single readings can be large; an effect the other way counts as inactive or inconclusive; also: potency is read from the fitted curve at half-maximal effect)
How it was run: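 Fluorescence polarization with 1.5 uM VDR-LBD, LG19078 and 7 nM Texas Red (final). After 2 hours at ambient temperature, read at Ex 595 nm/Em 615 nm.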

[14] = target: Vitamin D3 receptor (Homo sapiens) (UniProt P11473); assay: qHTS for Inhibitors of the vitamin D receptor (VDR): Hit Validation using a Beta-Lactamase Assay (AID 602202; active = well fitted curve in the direction sought with a large enough effect; inconclusive = small, poorly fitted or top-dose-only effect, or another doubt; inactive = no such curve, though single readings can be large; an effect the other way counts as inactive or inconclusive; also: potency is read from the fitted curve at half-maximal effect)
How it was run: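 Stably transfected HEK293 cells expressing VDR-GAL4 DNA-binding domain fusion with UAS-driven beta-lactamase reporter, activated by agonist LG190178; compounds incubated 18 h, then FRET beta-lactam substrate 2 h; cleaved substrate read at 447 nm emission.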

[15] = qHTS for Inhibitors of the vitamin D receptor (VDR): Hit Validation using a Cytotoxicity Assay (AID 602204; active = well fitted curve in the direction sought with a large enough effect; inconclusive = small, poorly fitted or top-dose-only effect, or another doubt; inactive = no such curve, though single readings can be large; an effect the other way counts as inactive or inconclusive;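 also: plate controls were DMSO for no effect and high-concentration cycloheximide for full effect; nearly all actives have a fitted effect of over 75% in size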)
How it was run: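 Plated cells (20,000/well) incubate 4 h, receive test compounds, and incubate 18 h more. A luminescent reagent measuring ATP from living cells is added and read after 30 min.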

[16] = target: Vitamin D3 receptor (Homo sapiens) (UniProt P11473); assay: qHTS for Inhibitors of the vitamin D receptor (VDR): Hit Validation using a Fluorescein Assay (AID 602200; active = well fitted curve in the direction sought with a large enough effect; inconclusive = small, poorly fitted or top-dose-only effect, or another doubt; inactive = no such curve, though single readings can be large; an effect the other way counts as inactive or inconclusive; also: potency is read from the fitted curve at half-maximal effect)
How it was run: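 Fluorescence polarization: 1.5 uM VDR-LBD, 5 uM LG19078 and 5 nM fluorescein-labeled SRC2-3 peptide (final) with compounds, 2 h at room temperature. Read at Ex 495/Em 520 nm; peptide-only wells served as control.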
Tags tell the direction and shape of the fitted curve or compound fluorescence and quenching.

Sequence of UniProt P11712 (P11712 whole entry, looked up): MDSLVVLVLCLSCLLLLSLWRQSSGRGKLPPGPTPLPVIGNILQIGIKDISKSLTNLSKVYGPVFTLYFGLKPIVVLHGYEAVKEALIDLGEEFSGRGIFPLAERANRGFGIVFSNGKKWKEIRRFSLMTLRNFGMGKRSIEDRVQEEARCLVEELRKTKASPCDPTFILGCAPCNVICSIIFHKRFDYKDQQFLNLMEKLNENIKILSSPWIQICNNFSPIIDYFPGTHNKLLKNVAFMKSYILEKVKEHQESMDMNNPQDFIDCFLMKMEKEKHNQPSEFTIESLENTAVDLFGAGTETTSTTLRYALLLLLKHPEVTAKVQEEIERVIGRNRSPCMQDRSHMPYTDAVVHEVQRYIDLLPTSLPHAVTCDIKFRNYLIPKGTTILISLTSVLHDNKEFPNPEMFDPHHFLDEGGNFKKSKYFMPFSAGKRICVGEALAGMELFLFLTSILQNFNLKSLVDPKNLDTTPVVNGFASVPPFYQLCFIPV
Sequence of UniProt Q07343 (Q07343 whole entry, looked up): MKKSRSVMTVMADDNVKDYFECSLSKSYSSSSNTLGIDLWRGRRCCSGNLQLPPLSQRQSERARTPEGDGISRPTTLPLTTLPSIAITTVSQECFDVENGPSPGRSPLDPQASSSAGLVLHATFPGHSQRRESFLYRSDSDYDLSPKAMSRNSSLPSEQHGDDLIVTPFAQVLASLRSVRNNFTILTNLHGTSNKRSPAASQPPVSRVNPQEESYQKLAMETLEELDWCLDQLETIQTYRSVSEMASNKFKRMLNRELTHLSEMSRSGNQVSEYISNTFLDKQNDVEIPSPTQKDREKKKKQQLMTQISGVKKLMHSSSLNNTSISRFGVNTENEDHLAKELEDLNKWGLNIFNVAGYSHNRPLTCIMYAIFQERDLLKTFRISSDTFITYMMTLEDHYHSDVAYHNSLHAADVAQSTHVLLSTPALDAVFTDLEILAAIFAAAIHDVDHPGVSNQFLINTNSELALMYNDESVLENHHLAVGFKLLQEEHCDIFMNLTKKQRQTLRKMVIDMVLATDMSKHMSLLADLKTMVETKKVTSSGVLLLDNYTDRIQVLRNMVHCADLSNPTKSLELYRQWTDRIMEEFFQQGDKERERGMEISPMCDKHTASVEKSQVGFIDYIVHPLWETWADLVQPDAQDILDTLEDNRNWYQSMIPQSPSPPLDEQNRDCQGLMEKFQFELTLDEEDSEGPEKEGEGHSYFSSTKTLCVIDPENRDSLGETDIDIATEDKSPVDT
Sequence of UniProt P10635 (P10635 whole entry, looked up): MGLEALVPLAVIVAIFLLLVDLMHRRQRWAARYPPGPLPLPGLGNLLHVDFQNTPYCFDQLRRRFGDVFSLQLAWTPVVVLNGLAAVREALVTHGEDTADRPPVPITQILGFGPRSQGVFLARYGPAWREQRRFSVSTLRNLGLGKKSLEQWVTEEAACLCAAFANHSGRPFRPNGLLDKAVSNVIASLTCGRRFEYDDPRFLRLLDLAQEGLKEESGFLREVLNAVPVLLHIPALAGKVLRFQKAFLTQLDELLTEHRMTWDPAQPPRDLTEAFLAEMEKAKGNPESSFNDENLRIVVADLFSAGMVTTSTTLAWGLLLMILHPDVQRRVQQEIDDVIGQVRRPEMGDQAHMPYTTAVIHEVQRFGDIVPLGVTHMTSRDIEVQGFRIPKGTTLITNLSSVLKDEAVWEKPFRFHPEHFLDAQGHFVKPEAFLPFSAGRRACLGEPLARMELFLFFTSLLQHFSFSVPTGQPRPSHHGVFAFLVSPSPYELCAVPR
Sequence of UniProt P08482 (P08482 whole entry, looked up): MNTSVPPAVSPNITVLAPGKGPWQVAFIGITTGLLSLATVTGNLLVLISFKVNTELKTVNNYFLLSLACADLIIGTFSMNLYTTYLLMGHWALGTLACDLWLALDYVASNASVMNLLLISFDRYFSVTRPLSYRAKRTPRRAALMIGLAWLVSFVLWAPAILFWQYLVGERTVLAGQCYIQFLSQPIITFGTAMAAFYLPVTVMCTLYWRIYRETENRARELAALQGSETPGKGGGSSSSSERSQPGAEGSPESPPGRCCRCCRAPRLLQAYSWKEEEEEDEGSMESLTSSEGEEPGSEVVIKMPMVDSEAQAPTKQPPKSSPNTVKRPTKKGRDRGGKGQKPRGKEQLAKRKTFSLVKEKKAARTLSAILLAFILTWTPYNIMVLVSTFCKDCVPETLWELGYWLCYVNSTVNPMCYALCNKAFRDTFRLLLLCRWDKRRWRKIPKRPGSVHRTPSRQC
Sequence of UniProt P08684 (P08684 whole entry, looked up): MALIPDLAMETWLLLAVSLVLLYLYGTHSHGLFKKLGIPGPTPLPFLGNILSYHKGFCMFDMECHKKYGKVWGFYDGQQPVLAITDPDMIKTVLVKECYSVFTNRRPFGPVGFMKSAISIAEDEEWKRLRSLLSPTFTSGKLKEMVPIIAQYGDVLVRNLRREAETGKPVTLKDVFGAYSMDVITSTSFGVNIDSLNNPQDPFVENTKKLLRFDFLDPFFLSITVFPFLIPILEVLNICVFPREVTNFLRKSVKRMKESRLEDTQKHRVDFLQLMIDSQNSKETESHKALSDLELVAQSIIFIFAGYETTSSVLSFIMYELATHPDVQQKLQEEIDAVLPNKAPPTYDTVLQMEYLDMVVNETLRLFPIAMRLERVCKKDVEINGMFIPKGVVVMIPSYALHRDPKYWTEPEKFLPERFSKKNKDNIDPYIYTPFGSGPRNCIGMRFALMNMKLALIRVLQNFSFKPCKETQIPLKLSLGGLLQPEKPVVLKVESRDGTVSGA
Sequence of UniProt P11473 (P11473 whole entry, looked up, the tested form may be a part): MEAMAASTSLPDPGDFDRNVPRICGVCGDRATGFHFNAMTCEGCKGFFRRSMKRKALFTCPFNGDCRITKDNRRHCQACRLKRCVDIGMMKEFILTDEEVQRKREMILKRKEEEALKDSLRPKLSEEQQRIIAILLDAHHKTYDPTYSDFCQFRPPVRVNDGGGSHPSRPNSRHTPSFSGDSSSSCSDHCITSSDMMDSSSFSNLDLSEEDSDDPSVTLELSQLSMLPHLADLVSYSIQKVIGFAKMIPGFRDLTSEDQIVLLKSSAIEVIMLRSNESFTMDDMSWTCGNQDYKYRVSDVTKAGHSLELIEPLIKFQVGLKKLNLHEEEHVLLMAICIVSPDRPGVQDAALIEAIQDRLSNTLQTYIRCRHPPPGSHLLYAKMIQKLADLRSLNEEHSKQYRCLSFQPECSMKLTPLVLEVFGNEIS
Sequence of UniProt Q96QE3 (Q96QE3 whole entry, looked up, the tested form may be a part): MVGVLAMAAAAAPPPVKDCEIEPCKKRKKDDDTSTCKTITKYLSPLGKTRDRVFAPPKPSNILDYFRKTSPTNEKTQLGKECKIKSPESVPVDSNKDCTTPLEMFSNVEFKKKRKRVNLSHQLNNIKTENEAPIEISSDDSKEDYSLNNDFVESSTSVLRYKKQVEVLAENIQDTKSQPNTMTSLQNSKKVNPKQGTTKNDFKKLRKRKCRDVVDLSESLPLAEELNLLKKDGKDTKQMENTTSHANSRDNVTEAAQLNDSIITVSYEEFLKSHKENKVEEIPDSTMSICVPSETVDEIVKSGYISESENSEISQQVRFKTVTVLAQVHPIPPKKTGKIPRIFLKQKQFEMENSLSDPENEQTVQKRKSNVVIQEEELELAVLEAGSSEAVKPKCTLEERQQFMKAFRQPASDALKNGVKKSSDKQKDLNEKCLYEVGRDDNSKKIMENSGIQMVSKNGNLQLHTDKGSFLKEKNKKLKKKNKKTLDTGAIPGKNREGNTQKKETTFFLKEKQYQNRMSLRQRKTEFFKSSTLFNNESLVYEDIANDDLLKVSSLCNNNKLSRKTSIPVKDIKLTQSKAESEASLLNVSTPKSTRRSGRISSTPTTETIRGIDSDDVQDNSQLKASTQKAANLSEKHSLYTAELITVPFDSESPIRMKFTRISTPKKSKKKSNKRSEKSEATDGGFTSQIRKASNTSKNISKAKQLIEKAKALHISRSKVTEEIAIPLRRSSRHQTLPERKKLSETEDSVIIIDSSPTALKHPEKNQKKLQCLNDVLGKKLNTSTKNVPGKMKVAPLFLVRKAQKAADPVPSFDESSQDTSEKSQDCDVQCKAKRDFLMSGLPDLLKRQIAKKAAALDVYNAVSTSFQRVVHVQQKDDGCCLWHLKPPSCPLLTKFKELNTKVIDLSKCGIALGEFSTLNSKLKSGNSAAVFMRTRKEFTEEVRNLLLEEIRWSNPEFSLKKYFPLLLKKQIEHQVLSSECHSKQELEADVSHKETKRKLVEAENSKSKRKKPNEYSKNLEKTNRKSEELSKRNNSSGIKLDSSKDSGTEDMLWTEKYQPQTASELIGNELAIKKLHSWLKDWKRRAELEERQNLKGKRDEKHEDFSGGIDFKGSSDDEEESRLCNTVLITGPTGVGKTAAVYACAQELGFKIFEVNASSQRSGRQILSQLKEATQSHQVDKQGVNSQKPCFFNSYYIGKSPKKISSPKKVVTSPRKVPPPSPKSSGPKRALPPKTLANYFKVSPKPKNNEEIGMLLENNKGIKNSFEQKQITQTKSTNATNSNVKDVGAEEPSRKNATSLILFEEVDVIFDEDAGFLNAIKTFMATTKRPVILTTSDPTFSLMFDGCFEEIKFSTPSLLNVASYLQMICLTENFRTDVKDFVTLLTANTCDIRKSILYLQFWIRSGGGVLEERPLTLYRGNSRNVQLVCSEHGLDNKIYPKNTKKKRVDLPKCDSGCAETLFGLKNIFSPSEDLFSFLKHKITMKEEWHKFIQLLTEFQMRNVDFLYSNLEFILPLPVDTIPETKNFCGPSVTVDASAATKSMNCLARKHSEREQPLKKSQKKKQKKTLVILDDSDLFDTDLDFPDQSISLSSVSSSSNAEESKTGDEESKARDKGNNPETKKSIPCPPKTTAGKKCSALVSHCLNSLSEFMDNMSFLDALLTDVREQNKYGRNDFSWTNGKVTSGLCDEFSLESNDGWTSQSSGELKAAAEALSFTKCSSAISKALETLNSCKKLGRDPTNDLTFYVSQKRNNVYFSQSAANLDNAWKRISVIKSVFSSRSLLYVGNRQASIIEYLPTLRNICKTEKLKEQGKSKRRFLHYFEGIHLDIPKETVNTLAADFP

Compound: CC1CCN(CC[C@@H]2CCCN2S(=O)(=O)c2cccc(O)c2)CC1
- activity change, negative = inhibition [1]: inconclusive: -37.8% [inhibitor] [at 38 µM]
- activity, negative = inhibition [2]: inactive: -6.42% [at 38 µM]
- Potency [3]: inconclusive: 0.00251 µM [activator, full curve, poor fit]
- Potency [4]: active: 14.1 µM
- Potency [5]: active: 14.1 µM

Compound: NS(=O)(=O)c1ccc(N=Nc2ccc[nH]c2=O)cc1
- activity change, negative = inhibition [1]: inactive: -25.2% [at 7.69 µM]
- activity, negative = inhibition [2]: inactive: -6.14%
- Potency [6]: inconclusive: 3.16 µM [inhibitor, single point]
- activation [7]: inconclusive: 12.3%

Compound: Nc1ccc(S(=O)(=O)NCCS(=O)(=O)O)cc1
- activity change, negative = inhibition [1]: inactive: 6.94% [at 7.69 µM]
- activity, negative = inhibition [2]: inactive: -3.3%
- activity change, negative = inhibition [8]: inactive: 21.8% [at 11.4 µM]
- activation [7]: inactive: -1.31%

Compound: COc1ccc2ccccc2c1/C=C\C(=O)c1ccccc1
- activity change, negative = inhibition [1]: inconclusive: -121% [inhibitor] [at 7.69 µM]
- activity, negative = inhibition [2]: inconclusive: -72.1% [inhibitor]
- Potency [9]: inconclusive: 3.16 µM [inhibitor, partial curve]
- activation [7]: inactive: 22.5%

Compound: CC1(C)COCN1COC1CCCCC1
- activity change, negative = inhibition [1]: inconclusive: 59.5% [activator] [at 7.69 µM]
- activity, negative = inhibition [2]: inconclusive: 232% [activator]
- Potency [10]: inactive

Compound: CCNc1ncc2nc(-c3ccccc3)c(=O)n(-c3ccc(OC)cc3)c2n1
- activity change, negative = inhibition [1]: inconclusive: 82.4% [activator] [at 7.69 µM]
- activity, negative = inhibition [2]: inconclusive: 101% [activator]
- Potency [10]: inconclusive: 10 µM [activator, partial curve]
- Potency [7]: active: 3.16 µM

Compound: N=C1[C@@H](O)[C@]2(I)c3ccccc3N3C(=N)[C@H](O)[C@@H]4c5ccccc5N1[C@@H]4[C@@H]32
- activity change, negative = inhibition [1]: inconclusive: -39% [inhibitor] [at 7.69 µM]
- activity, negative = inhibition [2]: inconclusive: -30.4% [inhibitor]
- Potency [6]: inconclusive: 7.94 µM [inhibitor, single point]
- Potency [8]: inconclusive: 6.31 µM [inhibitor, single point]

Compound: O=C(O)[C@@H](O)[C@@H](O)[C@@H](O)[C@@H](O)c1nc2ccccc2s1
- activity change, negative = inhibition [1]: inactive: -1.53% [at 7.69 µM]
- activity, negative = inhibition [2]: inconclusive: -36.2% [inhibitor]
- Potency [6]: inconclusive: 3.16 µM [inhibitor, single point]
- Potency [7]: inconclusive: 2.51 µM [inhibitor, single point]

Compound: CS(=O)(=O)Nc1cccc(-c2nc(NCc3cccs3)c3ccccc3n2)c1
- activity change, negative = inhibition [1]: inconclusive: -43.8% [inhibitor] [at 7.69 µM]
- activity, negative = inhibition [2]: inconclusive: -44% [inhibitor]
- Potency [10]: inconclusive: 10 µM [activator, partial curve]
- Potency [6]: inconclusive: 1.26 µM [inhibitor, single point]

Compound: O=c1c(-c2cccs2)nc2cnc(Oc3ccccc3)nc2n1-c1ccccc1
- activity change, negative = inhibition [1]: inconclusive: 58.9% [activator] [at 7.69 µM]
- activity, negative = inhibition [2]: inconclusive: 50.8% [activator]
- Potency [10]: inconclusive: 10 µM [activator, single point]

Compound: CCCn1cnc2c(SCc3ccc(Cl)cc3)nc(N)nc21
- activity change, negative = inhibition [1]: inactive: -4.9% [at 7.69 µM]
- activity, negative = inhibition [2]: inactive: -5.52%
- Potency [6]: inconclusive: 6.31 µM [inhibitor, single point]
- Potency [9]: inconclusive: 6.31 µM [inhibitor, partial curve]
- Potency [8]: inconclusive: 3.16 µM [inhibitor, single point]
- Potency [7]: inconclusive: 3.16 µM [inhibitor, partial curve]

Compound: COc1ccc2c(c1OC)C(=O)N1c3ccccc3C(=O)N(c3ccccc3)C21 (centres undefined)
- activity change, negative = inhibition [1]: inconclusive: -60.8% [inhibitor]
- activity, negative = inhibition [2]: inactive: 0.163% [at 17.2 µM]
- Potency [11]: active: 5 µM
- Potency [12]: inconclusive: 14.1 µM [cytotoxic, partial curve]

Compound: CS(=O)(=O)Nc1ccc(Nc2c3ccccc3nc3ccccc23)cc1
- activity change, negative = inhibition [1]: inconclusive: -36.9% [inhibitor] [at 7.69 µM]
- activity, negative = inhibition [2]: inactive: 25.9%
- Potency [6]: inconclusive: 6.31 µM [inhibitor, single point]
- Potency [8]: inconclusive: 3.16 µM [inhibitor, partial curve]

Compound: CC(C)Oc1ccc(C(=O)CCN2CCCCC2)cc1
- activity change, negative = inhibition [1]: inconclusive: -104% [inhibitor]
- activity, negative = inhibition [2]: inactive: -10.9% [at 17.2 µM]
- Potency [13]: active: 3.98 µM
- Potency [14]: inconclusive: 18.4 µM [inhibitor, single point]
- Potency [15]: inactive

Compound: CCOC(=O)c1ccc(N=Cc2nc(-c3ccccc3)oc2OC(C)=O)cc1
- activity change, negative = inhibition [1]: inconclusive: -133% [inhibitor]
- activity, negative = inhibition [2]: inconclusive: -57.5% [inhibitor] [at 17.2 µM]
- Potency [7]: inconclusive: 10 µM [inhibitor, partial curve]
- Potency [16]: inconclusive: 1 µM [inhibitor, full curve, poor fit]
- Potency [13]: inconclusive: 3.16 µM [inhibitor, single point]
- Potency [15]: inactive
